Hit rate of the full screen: of about 410,000 compounds, about 6,400 (1.6%) were called active. Inconclusive results, whose numbers are uncertain, are shown with a selection of clear calls. Calls come from the whole dose curve; as a rule, active = well fitted inhibition curve with a large enough effect; inconclusive = small, poorly fitted or top-dose-only effect; inactive = no such curve, though single readings can be large or run the other way. Potencies of inconclusive entries are left out as doubtful fits.
target: Glucagon-like peptide 1 receptor (Homo sapiens) (UniProt P43220); experiment: qHTS of GLP-1 Receptor Inverse Agonists (Inhibition Mode); details: HEK293 GLP-1R CRE-luciferase, luminescence, 24 h, GLP-1R form is constitutively active; series mostly up to 38.3 µM; note: nearly all actives have a fitted effect of over 55% in size
Summary of the method: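 GLP-1R inverse agonism mode: basal reporter luminescence in engineered HEK293 cells measured after one day of compound exposure at 37 deg C, with a 12 min room-temperature detection step.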
Potency is the fitted concentration of half-maximal effect; tags give direction and shape of the fitted curve.

Chain of UniProt P43220 (P43220 whole entry, looked up): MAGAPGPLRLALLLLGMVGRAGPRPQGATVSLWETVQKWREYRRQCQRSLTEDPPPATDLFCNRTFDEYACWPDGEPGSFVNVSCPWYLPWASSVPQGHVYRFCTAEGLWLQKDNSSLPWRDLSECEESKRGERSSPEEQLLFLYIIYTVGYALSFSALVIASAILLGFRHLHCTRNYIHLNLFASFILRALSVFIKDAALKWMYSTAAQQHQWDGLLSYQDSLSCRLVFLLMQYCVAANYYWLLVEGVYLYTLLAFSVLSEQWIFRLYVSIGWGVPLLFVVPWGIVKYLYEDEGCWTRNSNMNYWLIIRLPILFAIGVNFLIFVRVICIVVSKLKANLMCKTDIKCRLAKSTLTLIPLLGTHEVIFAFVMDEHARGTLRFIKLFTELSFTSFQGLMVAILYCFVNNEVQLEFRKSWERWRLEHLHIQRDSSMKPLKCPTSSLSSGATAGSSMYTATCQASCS

Structure (SMILES) | Potency
C=CCn1c(SCC(=O)Nc2ccc3c(c2)OCO3)nnc1-c1ccccc1OC | inconclusive [inhibitor, partial curve, poor fit]
Cc1ccc(-n2nc(C)c3c(C)c(CCC(=O)Nc4ccc(CN5CCCC5)cc4)c(C)nc32)cc1 | inconclusive [inhibitor, full curve, poor fit]
COc1ccccc1/C=C/C(=O)OCC(=O)N1CCN(S(=O)(=O)c2ccc(C)cc2C)CC1 | inconclusive [inhibitor, partial curve]
CC(C)[C@H](NC(=O)c1ccccc1F)C(=O)OCC(=O)NC(=O)NC1CCCCC1 | inconclusive [inhibitor, single point]
CCN(CC)S(=O)(=O)c1ccc(N2CCOCC2)c(NC(=O)Cc2ccc(Cl)cc2)c1 | inconclusive [inhibitor, partial curve, poor fit]
O=C(NCc1cccs1)C1CCN(c2ccc(S(=O)(=O)N3CCOCC3)cc2Cl)CC1 | inconclusive [inhibitor, full curve]
S=C(Nc1ccc(Oc2ccccc2)cc1)N1CCN(c2ccccn2)CC1 | inconclusive [inhibitor, single point]
COc1ccc(-c2nc3ccccc3c(=O)n2CCc2ccc(O)cc2)cc1 | inconclusive [inhibitor, single point]
CN(C)c1ccc(/C=C(\C#N)C(=O)c2ccccc2)cc1 | inactive
O=S(=O)(NCC(c1ccccc1)N1CCc2ccccc21)c1ccccc1 (stereo unspecified) | inconclusive [inhibitor, partial curve, poor fit]
COCc1nc2ccccc2n1Cc1cccc(C)c1 | inactive
Cc1ccc(C)c(S(=O)(=O)N2CCN(C(=O)C3CCN(c4ncnc5sc(C)c(C)c45)CC3)CC2)c1 | inconclusive [inhibitor, partial curve, poor fit]
CC1(C)CN(c2ccccc2)N(C(=O)c2ccc(C#N)cc2)C1=O | active: 3.16 µM
CN(CCOc1ccc(Cl)c(Cl)c1)Cc1ccccc1 | inconclusive [inhibitor, single point]
CCc1ccc(NC(=O)NCC2CCN(c3ccc(OC)cc3)C2)cc1 (stereo unspecified) | inconclusive [inhibitor, full curve]
O=C(CCc1ccccc1)NC(=S)Nc1cc(C(F)(F)F)ccc1N1CCOCC1 | inconclusive [inhibitor, single point]

Structure (SMILES) | Potency
O=C(CNC(=O)Cn1ccc2ccccc2c1=O)NCCCN1CCN(c2cccc(Cl)c2)CC1 | active: 10 µM
CC(=O)N1c2ccccc2N(Cc2ccc(C)cc2C)C(=O)C1(C)C | inconclusive [inhibitor, partial curve, poor fit]
CCN(CCCNC(=O)CCn1c(=O)[nH]c2ccccc2c1=O)c1cccc(C)c1 | inconclusive [inhibitor, single point]
CC(C)c1ccc(OCC(=O)N(Cc2ccccc2)c2ccccn2)cc1 | inconclusive [inhibitor, single point]
CCOc1ccc(-c2cc(C(=O)NCCCOC)c3c(-c4ccc(CC)cc4)[nH]nc3n2)cc1 | inactive
COc1cc2c(cc1OC)C(COc1ccc(F)cc1)N(C(=O)Cc1ccccc1)CC2 (stereo unspecified) | inconclusive [inhibitor, single point]
C=CCOC(=O)c1sc(NC(=O)c2ccc(OC)cc2)nc1C | inactive
NC(Cc1c[nH]c2ccccc12)C(=O)NCc1ccccc1 (stereo unspecified) | inactive
CCOc1ccc(/C=N/NS(=O)(=O)c2ccc(C)cc2)cc1OC | inactive
COCc1ccc(CN2CCCC(CO)(Cc3ccccc3)C2)o1 (stereo unspecified) | inconclusive [inhibitor, single point]
Cc1ccc(NC(=S)N(CCN(C)C)C(C)c2ccco2)cc1Cl (stereo unspecified) | inconclusive [inhibitor, partial curve, poor fit]
CCc1nc(N)nc(N)c1-c1ccc(NCCN)c([N+](=O)[O-])c1 | inconclusive [inhibitor, single point]
Oc1ccc(-n2nnnc2SCc2c(F)cccc2Cl)cc1 | inconclusive [inhibitor, partial curve, poor fit]
C=CCSC1=NNC(c2ccc(C(C)(C)C)cc2)=NN1 | inactive
COc1ccc(-c2onc(C)c2C)cc1S(=O)(=O)Nc1cc(Cl)ccc1C | inconclusive [inhibitor, full curve, poor fit]

From PubChem BioAssay AID624417 (National Center for Advancing Translational Sciences (NCATS), 2012)
